Data as given in paper PMC4336329 (PLoS ONE, 2015).
Hit rate of the full screen: of about 310,000 compounds, about 14,000 (4.5%) showed an effect of 50% or more. Effects have a minus sign here. This is one part of the list.

The compounds below were run against human ether-à-go-go-related gene (hERG) potassium channel (human, UniProt Q12809) (assay: primary screen, population patch clamp on CHO cells stably expressing hERG).
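Note: peak tail current of the secondary pulse compared with the same well before compound.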

Sequence of human ether-à-go-go-related gene (hERG) potassium channel (Q12809 whole entry, looked up): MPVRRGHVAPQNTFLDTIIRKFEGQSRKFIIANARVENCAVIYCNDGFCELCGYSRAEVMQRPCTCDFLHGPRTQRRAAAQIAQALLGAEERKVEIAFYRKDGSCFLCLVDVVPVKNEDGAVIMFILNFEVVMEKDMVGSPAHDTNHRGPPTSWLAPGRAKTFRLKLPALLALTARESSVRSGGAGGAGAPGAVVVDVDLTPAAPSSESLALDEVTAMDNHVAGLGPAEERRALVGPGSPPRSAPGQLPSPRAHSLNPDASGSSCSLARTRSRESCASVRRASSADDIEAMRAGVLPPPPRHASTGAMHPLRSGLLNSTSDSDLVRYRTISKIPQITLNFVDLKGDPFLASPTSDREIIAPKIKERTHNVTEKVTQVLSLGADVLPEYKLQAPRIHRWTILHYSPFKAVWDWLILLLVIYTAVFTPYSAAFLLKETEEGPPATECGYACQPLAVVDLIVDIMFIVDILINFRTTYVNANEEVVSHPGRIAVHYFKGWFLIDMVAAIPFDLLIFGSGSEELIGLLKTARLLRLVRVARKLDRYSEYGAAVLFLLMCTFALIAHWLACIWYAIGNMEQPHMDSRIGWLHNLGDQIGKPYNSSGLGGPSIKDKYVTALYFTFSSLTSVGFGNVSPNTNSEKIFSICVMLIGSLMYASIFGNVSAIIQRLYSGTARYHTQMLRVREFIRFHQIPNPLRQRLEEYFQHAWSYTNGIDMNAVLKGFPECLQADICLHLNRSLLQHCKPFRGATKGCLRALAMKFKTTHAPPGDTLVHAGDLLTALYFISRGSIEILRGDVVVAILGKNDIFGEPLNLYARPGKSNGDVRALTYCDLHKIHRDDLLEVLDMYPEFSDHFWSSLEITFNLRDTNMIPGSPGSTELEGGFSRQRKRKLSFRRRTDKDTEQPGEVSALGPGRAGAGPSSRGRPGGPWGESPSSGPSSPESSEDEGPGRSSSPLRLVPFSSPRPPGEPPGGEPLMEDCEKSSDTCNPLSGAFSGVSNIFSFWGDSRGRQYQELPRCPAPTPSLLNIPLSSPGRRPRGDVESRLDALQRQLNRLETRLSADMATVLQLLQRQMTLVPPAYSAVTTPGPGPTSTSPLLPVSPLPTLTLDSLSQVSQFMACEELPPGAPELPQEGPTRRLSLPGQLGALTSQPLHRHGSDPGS

Row | SMILES | hERG current change (%, negative = inhibition) at 10uM [%]
1 | CCC(=O)c1ccc(OC(C)C(=O)NC2(C#N)CCCCC2)cc1 (stereo not drawn) | 28.9
2 | COc1ccc(NS(=O)(=O)c2ccc3[nH]c(=O)[nH]c3c2)cc1 | 27.7
3 | O=C(Nc1ccc(Cl)cc1Cl)c1ccc2c(c1)OCCO2 | 0.458
4 | Cc1cc(N2CCCC2)nc2ccc(NC(=S)NCCCOC(C)C)cc12 | -83.4
5 | CN(C)c1nc2c(N)ncnc2n1[C@H]1O[C@@H](CO)[C@H](O)[C@@H]1O | 7.28
6 | COc1cnc(-c2ccccn2)nc1Sc1ccccc1 | -3.95
7 | O=C(Cn1nc(-c2ccccc2)ccc1=O)NCC1COCCO1 (stereo not drawn) | -1.47
8 | NC(=O)C1(N2CCCCC2)CCN(S(=O)(=O)c2cc(Cl)ccc2Cl)CC1 | -32.2
9 | COc1cccc(N2CCN(CC(=O)Nc3ccc(S(=O)(=O)N4CCCCCC4)cc3)CC2)c1 | -21.9
10 | O=C(c1ccc(Cl)cc1)N1CCN(C(=O)C2CCCCC2)CC1 | -2.89
11 | COc1ccc(NC(=O)Cn2c(=O)oc3cc(Cl)ccc32)c(OC)c1 | 14.7
12 | CC1=C(C(=O)OCc2ccc3c(c2)OCO3)C(c2ccc(F)cc2)NC(=O)N1 (stereo not drawn) | -24.9
13 | C=CCSc1nc2ccccc2c2nc(-c3ccccc3)nn12 | 9.06
14 | O=C(/C=C/c1ccc(Br)o1)NC(c1ccccc1)c1ccccc1 | -10.1
15 | COC(=O)c1sc(NC(=O)c2cc(C)on2)nc1C | 0.597
16 | COc1cc(C)ccc1OCC(=O)Nc1ccccc1N1CCOCC1 | -21.5
17 | CCC(Oc1ccc(C)cc1)C(=O)Nc1ccccc1C(=O)N1CCOCC1 (stereo not drawn) | 13.7
18 | COc1ccc(N2CCN(c3oc(-c4ccccc4OC)nc3C#N)CC2)cc1 | -17.6
19 | Cc1cccc(NC(=O)c2nc[nH]c2C(=O)N(C)Cc2ccccc2)c1 | 8.87
20 | O=C(/C=C/c1ccccc1)NCCOc1ccccc1 | -13.5
21 | CC(OC(=O)Cc1cccc(C(F)(F)F)c1)C(=O)Nc1ccc(Cl)cn1 (stereo not drawn) | -24.9
22 | CCO[C@H]1OC(C(=O)N2CCN(Cc3ccc4c(c3)OCO4)CC2)=C[C@@H](C)[C@@H]1CCCO | 0.739
23 | CCN(CC)CCNC(=O)CS(=O)Cc1nc(-c2ccc(C)cc2)oc1C (stereo not drawn) | -11.8
24 | CCSc1sccc1C1C(C#N)=C(N)N(c2cccnc2)C2=C1C(=O)CC(C)(C)C2 (stereo not drawn) | -50.4
25 | O=S(=O)(NCCCCCNS(=O)(=O)c1c(F)cccc1F)c1ccc2c(c1)OCCO2 | -18.7
26 | Cc1noc(C)c1CSc1nnc(-c2c[nH]c3ccccc23)n1-c1ccc(Cl)cc1 | 2.32
27 | C=CCn1c(C)cc(C(=O)COc2ccc(C)nc2[N+](=O)[O-])c1C | -19.3

Row | SMILES | hERG current change (%, negative = inhibition) at 10uM [%]
28 | COc1ccc(C(=O)NC(=S)Nc2ccc3oc(=O)ccc3c2)cc1 | 11.5
29 | COc1ccc(O)c(/C=N/c2sc(C)c(C)c2C#N)c1 | -19.6
30 | Cc1nc(/C(N)=N/OC(=O)c2c(-c3ccccc3Cl)noc2C)cs1 | 11
31 | CN(C)CC1CCCCC1OC(=O)/C=C/c1ccc(Cl)cc1Cl.Cl (stereo not drawn) | -32.4
32 | CCOC(=O)CC(=O)CSc1nc2ccc(C)cc2cc1C#N | -21.6
33 | CCOc1ccc(N(C)c2ccc(/C=C3/SC(=S)NC3=O)cc2)cc1 | 16.7
34 | COc1ccc(C(=O)/C=C(\N)C(F)(F)F)c(O)c1 | -1.25
35 | Cc1ccc(C)c(NC(=O)CN(C)C(=O)c2ccc(-c3cccc(C(F)(F)F)c3)o2)c1 | -5.55
36 | CC(C)(CSc1nncn1/N=C/c1ccco1)NS(=O)(=O)c1ccc(Cl)cc1 | -43.3
37 | CC(C)C[C@@H](COc1ccccc1)N1CCN(CCc2ccccc2)CCC1=O | -77.5
38 | On1c(-c2ccccc2)nc2ncccc21 | 0.151
39 | COC(=O)c1ccc2c(c1)sc(=NC(=O)CCS(=O)(=O)c1ccccc1)n2C | -16.6
40 | COCCNC(=O)/C=C/c1c(Cl)cccc1Cl | 2.43
41 | Cn1ccnc1C(=O)C1CCCN(Cc2cn[nH]c2-c2ccc(-c3ccccc3)cc2)C1 (stereo not drawn) | -67.9
42 | CC(=O)Nc1ccc(S(=O)(=O)Nc2c(C)n(C)n(-c3ccccc3)c2=O)cc1 | -1.32
43 | C=C(C)CNc1cc(S(=O)(=O)N2CCOCC2)ccc1Oc1ccccc1 | -21.3
44 | O=C(COc1ccc([N+](=O)[O-])cc1)N1CCN(c2nnc(-c3ccccc3)c3ccccc23)CC1 | -66.5
45 | COc1ccc(N2CCN(C(CNC(=O)C3CCCCC3)c3ccco3)CC2)cc1 (stereo not drawn) | 0.866
46 | CCn1c(CN2CCOCC2)nnc1SCC(=O)Nc1ccccc1Cl | 24.7
47 | Cc1cc(C)cc(-n2c(C)cc(/C=C3\C(=N)N4N=C(CC(C)C)SC4=NC3=O)c2C)c1 | 5.86
48 | C=CCN1C(=O)c2ccc(C(=O)N(CC)CC(=O)Nc3cc(Cl)ccc3C)cc2C1=O | -28.6
49 | O=C(CN=C1NC(=O)C(c2ccccc2)(c2ccccc2)N1)NCc1ccc(F)cc1 | 0.058
50 | CCOC(=O)CSc1nnc2cc(C)c3ccccc3n12 | -11.8
51 | CN(Cc1ccccc1)S(=O)(=O)c1cccs1 | -36.7
52 | CNC(=O)c1cc2c(=O)n3cc(C)ccc3nc2n(C(C)C)c1=N | -77.1
53 | N#Cc1c(Nc2ccccc2)c(C=O)c[nH]c1=O | 8.77
54 | CCOc1cc(/C=C2/C(=N)N3C(=NC2=O)SN=C3S(C)(=O)=O)ccc1OC(=O)c1ccco1 | 16.3
